Assay in all cases: Primary Screen for Target Class Profiling of Small Molecule Inhibitors of Methyltransferases
Assay [1] deals with Glycine N-methyltransferase (Homo sapiens) (UniProt Q14749). The conditions noted are these: purified enzyme, MTase-Glo SAH luminescence; measured here: GNMT inhibition; at 40 µM; stronger effect = lower value. The gist of the method: (§1)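 Each enzyme was assayed with SAM and its substrate. SAH formation detected by MTase-Glo luminescence; single-point 40 uM screen[…].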

For assay [2], the target named is Guanidinoacetate N-methyltransferase (Homo sapiens) (UniProt Q14353). Conditions: purified enzyme, MTase-Glo SAH luminescence; measured here: GAMT inhibition; at 40 µM; stronger effect = lower value. The procedure, abridged: as §1
Assay [3] concerns the target Histamine N-methyltransferase (Homo sapiens) (UniProt P50135). Conditions: purified enzyme, MTase-Glo SAH luminescence; measured here: HNMT inhibition; at 40 µM; stronger effect = lower value. The gist of the method:
as §1

The target of assay [4] is Nicotinamide N-methyltransferase (Homo sapiens) (UniProt P40261). The conditions noted are these: purified enzyme, MTase-Glo SAH luminescence; measured here: NNMT inhibition; at 40 µM; stronger effect = lower value. The gist of the method: as §1
Assay [5] has as its target Phenylethanolamine N-methyltransferase (Homo sapiens) (UniProt P11086). The conditions noted are these: purified enzyme, MTase-Glo SAH luminescence; measured here: PNMT inhibition; at 40 µM; stronger effect = lower value. The gist of the method:
as §1

“And” between values parts separate entries of the source, which are not always exact repeats. Equal values may be shown once. The list shows a part of the results. Further columns of the screen follow, without active or inactive calls.
% is scaled to controls: 0 for no effect and ±100 for the full control effect.

For `CC1(C(=O)NC2CCCCC2)Cn2nc(-c3cccs3)cc2C(=O)N1c1ccc(Cl)cc1` (stereo not given), the activity change, negative = inhibition in assay [1] is -1.08%; in assay [2] it was 3.89%; in assay [3], 5.72%; in assay [4], 2.55%; in assay [5], 0.092%.
Regarding `Cc1ccc(NC(=O)Cn2nc3n(C(C)C)c(=O)c4ccc(C(=O)NC5CCCC5)cc4n3c2=O)c(C)c1`, the activity change, negative = inhibition in assay [1] is -1.59%; in assay [2] it was -3.21%; in assay [3], 0.849%; in assay [4], -4.35%; in assay [5] it was -3.81%.
With `COc1cc(C2Oc3c(OC)cc(/C=C/C(=O)OC4CC(O)(C(=O)O)CC(O)C4O)cc3C2CO)ccc1O` (stereo not given), the activity change, negative = inhibition was 3.24% in assay [1]; 8.61% in assay [2]; 7.71% in assay [3]; -3.45% in assay [4]; 7.01% in assay [5].
Taken in the same sequence, the figures for `CCN1CCN(CCCNC(=O)c2cc3n(n2)CC(C)(C(=O)NCc2ccc(F)cc2)N(C)C3=O)CC1` (stereo not given) were -4%, 0%, -3.32%, -4.88% and -1.92%.
As to `O=C(NC1CCN(CCCCC2(C(=O)NCC(F)(F)F)c3ccccc3-c3ccccc32)CC1)c1ccccc1-c1ccc(C(F)(F)F)cc1`, the activity change, negative = inhibition in assay [1] was 5.09%; in assay [2], -7.45%; in assay [3] it was -2.28%; in assay [4] it was -31.7%; in assay [5], -14.8%.
Consider `CCC(=O)N1CCN(C(=O)c2ccccc2)CC1`, for which the activity change, negative = inhibition in assay [1] was 2.67%; in assay [2], 15%; in assay [3], 9.67%; in assay [4] it was -1.53%; in assay [5], 3.09%.
Consider `COc1ccc(C(=O)CC2(O)C(=O)Nc3c(Cl)ccc(Cl)c32)cc1` (stereo not given), for which the activity change, negative = inhibition was -1.66% in assay [1]; -3.06% in assay [2]; 8.56% in assay [3]; -19.1% in assay [4]; -1.49% in assay [5].
Taken in the same sequence, the figures for `COCC(=O)N1CC2(CCCCC2)CC1COc1ccc(OC)cc1` (stereo not given) were -9.55%, -9.69%, -4.56%, -17.2% and -8.89%.
In the same order, the values of `CC(C)NC(=O)c1cc2n(n1)CC(C)(C(=O)NCc1ccc(F)cc1)N(C)C2=O` (stereo not given) are 4.6%, 5.13%, 3.61%, -0.711% and 0.767%.
For `CC(C)(C)Cn1c(N)nc2ccc(-c3[nH]c(C(C)(C)C)nc3-c3ccc(F)cc3)nc21`, the activity change, negative = inhibition in assay [1] is -84.8% and -94.1%; in assay [2], -95.1%; in assay [3], -83.5% and -95.2%; in assay [4] it was -113% and -98.2%; in assay [5], -118% and -98%.
`COC(=O)Cn1c(=O)oc2cc(S(=O)(=O)NCC(C)c3ccccc3)ccc21` (stereo not given): the activity change, negative = inhibition in assay [1] came to 2.9%; in assay [2], 0%; in assay [3], 5.55%; in assay [4], 3.9%; in assay [5], 3.97%.
With `O=c1n(-c2ccncc2)nc2n1CCN(Cc1ccsc1)C2`, the activity change, negative = inhibition in assay [1] is -10.3%; in assay [2], -8.07%; in assay [3] it was -7.12%; in assay [4], -16.1%; in assay [5], -10.3%.
In the case of `CC(=O)OC1C[C@]2(C)C(O)CC(C)=C[C@H](OC(=O)c3ccc(O)cc3)C2[C@]1(O)C(C)C` (stereo not given in full), the activity change, negative = inhibition in assay [1] is -8.15%; in assay [2] it was 2.53%; in assay [3], -0.322%; in assay [4], -9.83%; in assay [5] it was -2.44%.
Turning to `CCOC(=O)c1cc2n(n1)CC(C)(C(=O)NC1CCCCCC1)N(Cc1ccc3c(c1)OCO3)C2=O` (stereo not given), the activity change, negative = inhibition is -2.22% in assay [1]; 0% in assay [2]; -2.55% in assay [3]; -3.19% in assay [4]; 2.03% in assay [5].
Taken in the same sequence, the figures for `CCN(CC)CCCN1C(=O)c2cc3oc(C)cc3n2CC1(C)C(=O)NC1CCCCC1` (stereo not given) were 7.21%, 0%, 3.19%, 10.1% and 2.44%.
On to `CCCN1C(=O)c2cc3c(OC)ccc(OC)c3n2CC1(C)C(=O)NC1CCCC(C)C1C` (stereo not given), for which the activity change, negative = inhibition in assay [1] is -1.69%; in assay [2], 0%; in assay [3] it was 3.65%; in assay [4] it was 0.363%; in assay [5], -0.671%.
In the case of `Cc1ccc(NC(=O)CN(C)S(=O)(=O)c2ccc3[nH]c4c(c3c2)CCCC4)c(Cl)c1`, the activity change, negative = inhibition in assay [1] was -1.5%; in assay [2] it was 1.26%; in assay [3], 3.28%; in assay [4], -4.76%; in assay [5] it was 0.845%.
`Cc1cnn(CCC(=O)N2CCCC(c3nnc(Cn4ccnc4)n3C)C2)c1` (stereo not given): the activity change, negative = inhibition in assay [1] is -1.94%; in assay [2] it was -1.46%; in assay [3], 1.04%; in assay [4], 3.81%; in assay [5] it was 7.06%.
In the same order, the values of `COc1cccc(S(=O)(=O)N2C[C@@H](Oc3cccnc3)C[C@H]2C(=O)NC2CC2)c1` are -8.81%, -16.9%, -5.7%, -14.9% and -11.4%.
Regarding `C=CCNC(=O)N1CC[C@H]2CC(=O)N(C3CC3)CC[C@H]2C1`, the activity change, negative = inhibition is -6.99% in assay [1]; -6.11% in assay [2]; -3.82% in assay [3]; -8.87% in assay [4]; -6.03% in assay [5].
As for `COc1ccc(CN2C(=O)CO[C@H]3CN(C(=O)C4CC4)C[C@H]32)cc1`, the activity change, negative = inhibition in assay [1] was -4.14%; in assay [2], -5.2%; in assay [3] it was -3.62%; in assay [4], -11.3%; in assay [5] it was -3.01%.
In the same order, the values of `CCC1c2ccc(C)n2CCN1C(=O)Nc1ccccc1C` (stereo not given) are 0.832%, 0%, -0.194%, -1.56% and -1.29%.
Taken in the same sequence, the figures for `CNC1CCC(N(Cc2cccc(-c3ccncc3)c2)C(=O)c2sc3ccccc3c2Cl)CC1` (stereo not given) were -27.9%, -3.37%, -75%, -76.9% and -19.3%.
For `NC(=O)c1ccc2nc(-c3ccc(Oc4ccc(Cl)cc4)cc3)[nH]c2c1`, the activity change, negative = inhibition in assay [1] was -11.1%; in assay [2], 11.5%; in assay [3], -42.5%; in assay [4], -43.4%; in assay [5], -9.35%.
On to `CCc1ccc(CN2C(=O)c3cc4ccccc4n3CC2(C)C(=O)NCc2ccccc2OC)cc1` (stereo not given), for which the activity change, negative = inhibition worked out at 8.66% in assay [1]; 0% in assay [2]; 6.7% in assay [3]; 11% in assay [4]; 0.832% in assay [5].
In the case of `O=C(/C=C/c1ccc(O)cc1)OCC1=CC2OC(=O)C3=CO[C@@H](O[C@@H]4O[C@H](CO)[C@@H](O)[C@H](O)[C@H]4O)[C@H]1[C@@H]32` (stereo not given in full), the activity change, negative = inhibition in assay [1] is -6.28%; in assay [2], -5.98%; in assay [3], 7.3%; in assay [4], -15.4%; in assay [5], 2%.
As to `O=C(C1CCC1)N1CCOc2ccc(CN3CCc4ccccc4C3)cc2C1`, the activity change, negative = inhibition is -6.62% in assay [1]; -7.87% in assay [2]; -30.4% in assay [3]; -14.2% in assay [4]; -13.9% in assay [5].
Taken in the same sequence, the figures for `C=CCNC(=O)N[C@H]1CCN(C(=O)CSC)[C@@H]1C(=O)N1CCC[C@@H]1C(N)=O` were -3.32%, -8.75%, -2.41%, -13.6% and 8.38%.
Taken in the same sequence, the figures for `CC1(C(=O)NC2CCCC2)Cn2cnc(C(=O)NCCCc3ccccc3)c2C(=O)N1C1CC1` (stereo not given) were 3.76%, 0%, 5.94%, 0.718% and 3.91%.
`Cc1nc2cnccn2c1C(=O)NCc1ccccc1`: the activity change, negative = inhibition in assay [1] is -8.24%; in assay [2], -10.4%; in assay [3], -6.05%; in assay [4] it was -19.7%; in assay [5] it was -6.27%.
In the case of `CCn1c(=O)n(CC)c2cc(S(=O)(=O)Nc3ccc(Br)cc3F)ccc21`, the activity change, negative = inhibition was 2.67% in assay [1]; 0.517% in assay [2]; 3.35% in assay [3]; -4.75% in assay [4]; 3.6% in assay [5].
Consider `CN(C)C[C@@H]1CN(c2ncccn2)C[C@H]1NS(=O)(=O)Cc1ccc(F)cc1`, for which the activity change, negative = inhibition was -0.124% in assay [1]; 1.25% in assay [2]; 0.373% in assay [3]; -3.88% in assay [4]; 13.4% in assay [5].
With `Fc1ccc(OC2CN(CC3CCCCC3)C2)c(F)c1`, the activity change, negative = inhibition was -2.68% in assay [1]; -1.52% in assay [2]; 0.438% in assay [3]; -4.23% in assay [4]; -0.339% in assay [5].
In the case of `Cc1c(F)cccc1NC(=O)N1C[C@@H](F)C[C@H]1C(=O)N1CCOCC1`, the activity change, negative = inhibition turned out to be 2.1% in assay [1]; 2.49% in assay [2]; 0.092% in assay [3]; 3.5% in assay [4]; 1.02% in assay [5].
Taken in the same sequence, the figures for `CCNC(=O)[C@@H]1C[C@H](N)CN1C(=O)c1cnc(-c2cccnc2)nc1C` were 0.212%, -2.07%, -0.711%, -1.96% and -4.91%.
As to `Cc1nc2c3ccccc3n3c(CCCC(=O)NCC(C)c4ccccc4)nnc3n2n1` (stereo not given), the activity change, negative = inhibition is -9.55% in assay [1]; 1.55% in assay [2]; 7.67% in assay [3]; 11.3% in assay [4]; 2.59% in assay [5].
Taken in the same sequence, the figures for `CN(CC1CCOCC1)S(=O)(=O)c1ccc(Cl)s1` were 0.58%, 1.6%, 2.33%, -2.26% and 1.52%.
For the molecule `CCn1c2c(c(=O)n1Cc1ccccc1)CCN(C(=O)c1scnc1C)C2`, the activity change, negative = inhibition in assay [1] is -4.32%; in assay [2], -7.35%; in assay [3] it was -2.56%; in assay [4], -17.8%; in assay [5] it was -10.4%.

The record behind these values is PubChem BioAssay AID1745853 (National Center for Advancing Translational Sciences (NCATS), 2022).
